The whole screen tested about 52,000 compounds, of which about 4,300 (8.3%) were called active. Rule as the data show it: active = survival mostly below about 52% (no sharp cut-off); inactive = mostly above about 56%. The list shows a part of the results.
Tested on: DeltatarO mutant
Test: growth inhibition of S. aureus wild type versus tarO mutant, primary screen, teichoic acid synthesis inhibitors, RN4220, OD600 (AID 463173)
Settings: OD600, 18 h, stronger effect = lower value, screened at 18.75 µg/mL (by protocol)

Structure (SMILES) | survival
Cc1ccc2c(=O)c(C(=O)c3ccccc3)cn(CC(=O)Nc3ccccc3C)c2n1 | inactive: 66%
COc1cc(NC(=O)Cn2cnc3sc(C)c(S(=O)(=O)N4CCC(C)CC4)c3c2=O)cc(OC)c1OC | inactive: 111%
CC(CN1CCOCC1)OC(=O)C1c2ccccc2Oc2ccccc21 (stereo not given) | inactive: 81%
Cc1nc(-c2ccc(S(=O)(=O)NCc3ccc(OC(C)C)cc3)cc2)co1 | inactive: 94%
O=C(COc1ccccc1F)Nc1ccc2nc(SCC(=O)N3CCCC3)sc2c1 | inactive: 69%
COc1ccc(C(=O)NCCn2cc(SCC(=O)Nc3ccc(F)cc3)c3ccccc32)cc1 | inactive: 52%
O=C(NC1CCN(C(=O)Nc2cccc(Cl)c2)CC1)C1CCCCC1 | inactive: 58%
CC(C)(C)NC(=O)CSc1nc(O)cc(=O)[nH]1 | inactive: 68%
CCNc1ccc(-c2nc(-c3ccncc3)no2)cc1[N+](=O)[O-] | inactive: 79%
CSc1ncc(Cl)c(C(=O)Nc2c(C(=O)c3ccc(C)c(F)c3)oc3ccccc23)n1 | inactive: 86%
COc1cccc(NC(=O)CCc2nc(-c3cccs3)no2)c1 | inactive: 75%
CCC1CCCCN1C(=O)c1cc(Cl)ccc1OC (stereo not given) | inactive: 97%
CCOc1ccc(C2C(=O)N(C3CCCCC3)CC(=O)N2CCC2=CCCCC2)cc1OC (stereo not given) | inactive: 87%
O=C(O)c1ccc2nccnc2c1 | inactive: 90%
CCOc1ccc(C(=O)c2cn(CC(=O)Nc3ccc(F)c(F)c3)c3cc4c(cc3c2=O)OCCO4)cc1 | inactive: 130%
CCS/C(=C(\C#N)C(N)=O)c1ccc(-c2ccccc2)[nH]1 | inactive: 59%
CCOc1ccccc1C(=O)Nc1ccc2nc3c(c(Nc4ccc(OC)c(OC)c4)c2c1)CCCC3 | inactive: 58%
O=C(NCc1ccc(F)cc1)c1ccc2c(c1)nc1n2CCCCC1 | inactive: 80%
O=C(Nc1ccccc1)c1ccc2c(O)c(S(=O)(=O)c3ccc(Cl)cc3)c(=O)[nH]c2c1 | inactive: 74%
Cc1ccc(-c2ccc(C#N)c(=O)n2CC(=O)N2CCNC(=O)C2(C)C)cc1 | inactive: 88%
Cc1cc(Nc2cccc(Cl)c2)nc2ccc(NC(=O)c3cccc(N(C)C)c3)cc12 | inactive: 106%
COc1ccc(-c2noc(-c3nnn(-c4ccc(C(C)C)cc4)c3C)n2)cc1OC | inactive: 67%
Cc1cc(O)c2c(C)c(CC(=O)N3CCCCC3)c(=O)oc2c1 | inactive: 69%

Structure (SMILES) | survival
CCOC(=O)c1ccc(NC(=O)CN2Cc3ccccc3C2=O)cc1 | inactive: 94%
COc1ccccc1C(=O)Nc1onc2c1CCCC2 | inactive: 77%
COc1cccc(CNC(=O)C(Cc2ccccc2)NS(=O)(=O)c2ccc3c(c2)oc(=O)n3C)c1 (stereo not given) | inactive: 72%
Cc1cccc(OC(=O)c2cc(-c3ccc4c(c3)OCCO4)on2)c1C | active: -1%
Cn1c(=O)c(C2=NS(=O)(=O)c3ccccc3N2)c(O)c2ccccc21 | inactive: 77%
Cc1cccc(N2CCN(c3ccc(NC(=O)c4ccccc4)cc3C(=O)O)CC2C)c1 (stereo not given) | inactive: 81%
Cc1cccc(NC(=O)c2ccc3nc(CCc4ccccc4)oc3c2)c1C | inactive: 74%
CCn1c(CNC(=O)C(OC)c2ccccc2)nnc1SC (stereo not given) | inactive: 87%
CCc1ccc(NC(=O)N2CCC(N3CCN(Cc4ccc(C)cc4)C(=O)C3=O)CC2)cc1 | inactive: 124%
COc1ccc(-c2cc3nccc(-c4cc(Cl)c(C)cc4O)n3n2)cc1 | inactive: 85%
CC(C)(C#N)Nc1ccccc1 | inactive: 78%
CCn1c(C(=O)N2CCCC(C(=O)N3CCN(c4ccccc4)CC3)C2)cc2sccc21 (stereo not given) | inactive: 66%
CCOc1ccccc1C1C(C(=O)Nc2ccccc2)=C(C)Nc2c(C(=O)Nc3ccc(F)cc3)cnn21 (stereo not given) | inactive: 82%
CCn1cc(C(=O)N2CCN(c3ccc(OC)cc3)CC2)c2cc(OC)c(OC)cc2c1=O | inactive: 58%
O=C(CSc1ncccn1)n1c2c(c3ccccc31)CCCC2 | inactive: 96%
O=S(=O)(c1ccc2nc(Nc3cccc(F)c3)ccc2c1)N1CCCC1 | inactive: 72%
CCOc1ccc(-c2cccc(NS(=O)(=O)c3ccccc3C(F)(F)F)c2)nn1 | inactive: 91%
CCOc1ccc(NC(=O)C2CC(=O)NC(=Nc3ccccc3)S2)cc1 (stereo not given) | inactive: 78%
Cc1ccc(S(=O)(=O)NCC(Nc2cccc(Cl)c2)c2ccccc2)cc1 (stereo not given) | inactive: 66%
Cc1ccccc1Cn1c2ccccc2c2cnn(CC(=O)N3CCC(C)CC3)c(=O)c21 | inactive: 41%
Cc1ccc(S(=O)(=O)NCC(c2ccc(N(C)C)cc2)N2CCc3ccccc32)cc1 (stereo not given) | active: 0%
CCCCSCCCNC(=O)c1c[nH]c2ccc(S(=O)(=O)Nc3cccc(OC)c3)cc2c1=O | inactive: 90%
Cc1cc2nc(N(Cc3cccnc3)C(=O)c3ccc(Cl)s3)sc2cc1C | active: 32%

Structure (SMILES) | survival
COc1ccc(-n2ccnc(NCCc3ccc(Cl)cc3)c2=O)cc1OC | inactive: 60%
CCN(C(=O)Cc1ccccc1OC)c1nnc(-c2ccncc2)s1 | inactive: 70%
CCN(Cc1ccccc1)Cc1c(O)ccc2oc(C)c(C(=O)Nc3ccccc3C)c12 | active: 29%
O=C(Cc1ccccc1)Nc1nnc2n1CCS2 | inactive: 71%
CC(=O)N1c2ccc(S(=O)(=O)N(C)CC(=O)N(Cc3ccccc3)C(C)C)cc2CC1C (stereo not given) | inactive: 72%
CC(C)(C)c1ccc(C(=O)N2CCN(CCc3ccccn3)CC2)cc1 | inactive: 45%
CCC(C)NC(=O)Cn1c(=O)n(-c2ccc(C)c(C)c2)c(=O)c2c(C)c(C(=O)N(CC)CC)sc21 (stereo not given) | inactive: 80%
CCOc1ccccc1NC(=O)CSC1=Nc2ccccc2C2=NC(CC(=O)NCc3ccc4c(c3)OCO4)C(=O)N12 (stereo not given) | inactive: 106%
Cc1nn(CC(=O)NCCc2ccccc2)c(=O)c2c1sc1ccccc12 | inactive: 79%
Clc1nc(Cl)nc(N2CCCCC2)n1 | inactive: 86%
O=c1cc(-c2ccccc2)n2c(SCc3ccc(Br)cc3)nnc2[nH]1 | inactive: 104%
CCS(=O)(=O)c1ncc(Cl)c(C(=O)N2CCN(c3ccc(OC)cc3)CC2)n1 | inactive: 68%
CCOc1ccc(NC(=O)c2oc3ccccc3c2NC(=O)COc2cccc(OC)c2)cc1 | inactive: 78%
Cc1cccc(CN2C(=O)c3ccccc3Sc3ccc(C(=O)NCc4ccco4)cc32)c1 | inactive: 102%
O=c1c2ccccc2nc(/C=C/c2cccc3ccccc23)n1-c1ccc(F)cc1F | inactive: 99%
COc1ccc(/C=C(\NC(=O)c2ccccc2)C(=O)N2CCN(C)CC2)cc1 | inactive: 94%
Cc1ccc(CNC(=O)CCc2cn(C)c3ccccc23)cc1 | inactive: 91%
NS(=O)(=O)c1ccc(CCNC(=O)C2CCN(c3ncnc4c3nc3n4CCCCC3)CC2)cc1 | inactive: 83%
CCC(Sc1nc2c(sc3ccccc32)c(=O)n1CCc1ccc(OC)c(OC)c1)C(=O)N(CC)CC (stereo not given) | inactive: 76%
CCC(CC)C(=O)Nc1nnc(S(=O)(=O)N2CCCCCC2)s1 | inactive: 85%
COc1ccc(CCNC(=O)c2ccc3c(c2)CCN3S(C)(=O)=O)cc1OC | inactive: 89%
CCCOc1ccc(Cc2c(O)nc(N)[nH]c2=O)cc1C | inactive: 76%
COc1ccc2c(CNCCc3ccc(SC)cc3)c(C(=O)O)n(Cc3ccc(F)cc3)c2c1 | inactive: 95%

Structure (SMILES) | survival
COc1ccc2c(c1)c(=O)c(C(=O)c1ccccc1)cn2CC(=O)Nc1ccc2c(c1)OCO2 | inactive: 99%
COc1ccc(Cn2cc(S(=O)(=O)c3ccc(C)cc3)c(=O)c3cc(F)ccc32)cc1 | inactive: 70%
Cc1nc(-c2ccc(S(=O)(=O)Nc3cc(Cl)ccc3C)cc2)co1 | inactive: 90%
COc1ccc(-c2nc3scc(CCNS(=O)(=O)c4ccc(Oc5ccccc5)cc4)n3n2)cc1OC | inactive: 120%
Cc1ccsc1CCN1C(=O)N(c2ccccc2)C(=O)C1CC(=O)Nc1ccc(Cl)cc1 (stereo not given) | inactive: 66%
O=C(CNC(=O)c1ccccc1)OCc1cc(=O)n2nc(C3CCCCC3)sc2n1 | inactive: 90%
Cc1ccc2sc(N(Cc3cccnc3)C(=O)CCS(=O)(=O)c3ccccc3)nc2c1C | active: 6%
COc1ccc(N2CCN(C(=O)CSc3nc(-c4ccc(C(C)C)cc4)no3)CC2)cc1 | inactive: 99%
CC(=O)c1cccc(NC(=O)Nc2sc3nc4n(c(=O)c3c2C)CCC(C)CC4)c1 (stereo not given) | inactive: 92%
O=C(NN=c1c(=O)c2ccccc2c1=O)c1ccncc1 | inactive: 77%
CCN(CC)C(=O)c1sc2c(c1C)c(=O)n(Cc1ccccc1)c(=O)n2Cc1ccccc1C | inactive: 75%
Cc1cn2c(=O)cc(COC(=O)c3ccc(NC(=O)c4ccc(F)cc4)cc3)nc2s1 | inactive: 96%
CCOC(=O)c1ccc(NC(=O)c2cnn3c(=O)c4c(n(CC)c23)CCN(Cc2ccc(OC)cc2)C4)cc1 | inactive: 96%
COC(=O)c1ccc(Nc2ncnc3c2cnn3C)cc1 | inactive: 81%
CC1CCN(S(=O)(=O)N2CCC(C(=O)NCc3ccccc3Cl)CC2)CC1 | inactive: 81%
COc1ccc(CNC(=O)Cc2c(C)c3cc4c(C)coc4cc3oc2=O)cc1OC | inactive: 78%
COc1ccc(C2c3[nH]c4ccccc4c3CCN2C(=O)CCC2CCCC2)cc1 (stereo not given) | inactive: 95%
CCN(CC)c1ccc(NC(=O)c2cc(C)nc3c2c(C)nn3-c2ccc(C)cc2)c(C)c1 | inactive: 101%
CC(Sc1nccn1C)C(=O)Nc1ccccc1C#N (stereo not given) | inactive: 85%
CCOc1ccc(C(=O)Nc2c(C(=O)Nc3ccccc3OC)oc3ccccc23)cc1OCC | inactive: 65%
Cc1cc(C)cc(OCCSc2nc3ccc(NC(=O)c4cccs4)cc3s2)c1 | inactive: 58%

Source: PubChem BioAssay AID463173 (ICCB-Longwood Screening Facility, Harvard Medical School, 2010)
